# Source: the supplement of paper PMC3334620
# The full ranking holds about 33,000 sequences; the median of “E-score (-0.5 to 0.5)” is about -0.012, and the highest 2% start at about 0.27. This is one part of the list.
# Target: T1, Vhr1 (UniProt P40522)
# T1 sequence: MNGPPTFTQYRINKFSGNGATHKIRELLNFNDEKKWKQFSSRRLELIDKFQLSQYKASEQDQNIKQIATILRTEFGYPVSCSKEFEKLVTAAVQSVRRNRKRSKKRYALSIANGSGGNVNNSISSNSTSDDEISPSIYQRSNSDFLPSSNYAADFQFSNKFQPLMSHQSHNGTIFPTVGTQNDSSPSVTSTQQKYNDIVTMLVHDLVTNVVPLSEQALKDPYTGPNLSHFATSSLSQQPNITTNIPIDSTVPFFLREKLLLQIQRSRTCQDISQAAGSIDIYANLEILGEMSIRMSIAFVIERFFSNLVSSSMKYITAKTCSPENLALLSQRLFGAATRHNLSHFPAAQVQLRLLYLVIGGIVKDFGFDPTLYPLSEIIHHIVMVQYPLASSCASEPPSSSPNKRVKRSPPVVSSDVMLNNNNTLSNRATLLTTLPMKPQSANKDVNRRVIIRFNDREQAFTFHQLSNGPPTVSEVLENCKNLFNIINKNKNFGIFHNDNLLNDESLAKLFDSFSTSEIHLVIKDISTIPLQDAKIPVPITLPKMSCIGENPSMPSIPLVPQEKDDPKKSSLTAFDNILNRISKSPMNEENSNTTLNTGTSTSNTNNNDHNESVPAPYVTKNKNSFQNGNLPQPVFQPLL
# Assay: PBM E-score (8-mer binding enrichment) (E-score (-0.5 to 0.5)); higher = stronger / more preferred TF binding; most listed sequences are background and not binding sites
# Details: protein concentration: 200 nM; construct: GST-full length
# Protocol: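 Universal 'all 10-mer' protein binding microarrays (Agilent AMADID 015681) probed with GST-tagged S. cerevisiae TFs (full-length or DBD) made by in vitro transcription/translation (PURExpress), about 100-200 nM. Bound TF was detected with fluorescent anti-GST. Each ungapped 8-mer (which stands for itself and its reverse complement) is scored by the PBM enrichment score (E-score), a modified Wilcoxon-Mann-Whitney statistic from -0.5 to +0.5, computed with the Universal PBM Analysis Suite. Scale: above 0.35 generally sequence-specific binding.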
row,Sequence,PBM E-score
1,AAACCTTA,-0.0599
2,AAACTATA,0.109
3,ACTACGTG,0.0775
4,CAGTCCGC,0.0926
5,CACCGTGG,0.0821
6,AGCTAAAG,-0.21
7,GGCTGCGA,0.12
8,CCGCTGCC,-0.0547
9,CAAATACC,0.0617
10,ATGCGAGA,-0.285
11,ACGACGCC,-0.036
12,GTGATTCA,0.408
13,CGGCGGGC,0.221
14,GGTAGTTA,0.0143
15,ACGCTGGG,-0.122
16,AGGCAAGG,-0.292
17,CGGCAGGC,-0.107
18,ACATATAC,0.157
19,ACTGGGAT,0.0499
20,ATGGACGG,0.101
21,CGTACGAC,-0.0342
22,CAGATCAC,-0.108
23,GGAGTCGA,0.122
24,CGTAATTA,-0.128
25,CGATGGAG,0.157

row,Sequence,PBM E-score
1,CAAGGTCG,0.00057
2,AAGAGTCT,0.00073
3,CGAGTTAA,0.0624
4,CACTGAAG,0.032
5,CGGGCCTC,-0.111
6,AATTGGTA,0.0224
7,CCATTAGC,-0.0966
8,CGATTCAG,0.12
9,GCTGTCTA,-0.057
10,TACCACAA,0.15
11,AGCAGGCA,0.092
12,AGTCGATC,0.111
13,TCCTAACA,-0.065
14,AAAACACC,-0.0811
15,ACGACAAA,0.092
16,CTTCAGCC,-0.113
17,ACGTAGCG,-0.156
18,ATTTTACA,-0.251
19,CTCCCCTA,0.0411
20,CGCTTGCA,0.0634
21,CGCCGCAG,0.211
22,TAGCCTCA,0.0353
23,CTCAATCC,-0.0448
24,GGCGACTA,0.212
25,ACGCCAGC,-0.0673

row,Sequence,PBM E-score
1,TCCCGACA,0.094
2,AGACTTCA,-0.355
3,AATAAGAA,-0.0239
4,AAAGAATA,-0.0407
5,GTCCTCTA,-0.174
6,ATGGGCCC,-0.027
7,CAACGGAC,-0.158
8,CTTCGTGC,0.0452
9,AGGGCGTC,-0.161
10,CCTTGAAG,-0.196
11,ACCCCATA,0.139
12,AGAAGGAT,-0.286
13,GCGTTATA,-0.0946
14,GACTCCCA,0.243
15,TACGTGCA,0.08
16,CACATCAA,0.217
17,GGGTCGTA,-0.0961
18,GACACGAA,-0.0279
19,GAATCAAC,0.247
20,AGCTCTAG,-0.176
21,CATGGGTC,0.221
22,GCATGCAC,-0.00024
23,CCGAATCA,0.288
24,GCCATTAA,0.00149
25,TAGGGGAA,-0.0316

row,Sequence,PBM E-score
1,ACAGTCCC,-0.0066
2,ATGGAGTG,-0.0367
3,ACTATCAT,0.251
4,AAGTGAAG,-0.187
5,AAACGGCT,-0.125
6,CGTGCCTA,-0.244
7,CTCAGGCC,-0.146
8,ATCCCCCC,-0.0929
9,ACCGCAAC,0.255
10,CGTATATC,-0.0872
11,CGCCAGGC,0.126
12,CTTTTCCA,-0.21
13,AGTACTCG,0.224
14,ACTCCGCT,0.143
15,AGGTTAGA,-0.15
16,AGTTCACA,-0.0541
17,TCAATCAA,0.143
18,ACGGAAGC,-0.0873
19,CACCCTGC,0.215
20,GCATTCCC,-0.0631
21,TACCTCAA,-0.209
22,AAGGGTCA,-0.0962
23,ATCTTCTA,-0.0197
24,ACATACCC,0.178
25,GCAAAGGA,-0.095

row,Sequence,PBM E-score
1,ATCAACTA,0.144
2,ATATTCCC,-0.0984
3,GAATTGCC,-0.264
4,GACCAACC,0.00776
5,AAAGCAGA,-0.197
6,CAAGAGGA,0.0561
7,CGCCAGCG,-0.119
8,TTGTGAAA,-0.058
9,ACATGATC,0.154
10,AAGGTTTA,-0.117
11,GCTCTCCC,-0.0667
12,AAAATATT,-0.0198
13,AGTGGACC,-0.216
14,AATGGGGC,-0.0557
15,ATGTCCGA,-0.123
16,CGATTTAA,-0.137
17,CATTAAAC,-0.154
18,CTGTAACC,0.112
19,CAGGGATG,0.159
20,CATAAATC,0.141
21,GATTTGGA,-0.0941
22,GAGTAACA,0.286
23,ATTATGCA,0.0497
24,AAAGCATG,-0.0101
25,CCGGGAAA,-0.0862

row,Sequence,PBM E-score
1,GGGAGGGA,0.134
2,AACCATGA,0.351
3,CAGGTTAC,-0.0849
4,CGGAGAGA,0.0791
5,CAGGATGG,0.0704
6,TAGCGATA,0.097
7,AGGCGAAA,-0.128
8,GACGGGAC,-0.136
9,GAATCCAA,0.0442
10,AAGGAAAC,-0.195
11,ACCCAGTG,0.118
12,ACACACTA,0.215
13,AATGCATT,0.112
14,ATCCAACG,-0.0529
15,CTGGGCTA,-0.0712
16,CTATTTCA,0.0766
17,CGCCAGGA,0.00566
18,AGCGACGG,0.0711
19,ACGAGCAG,0.0226
20,AAATCATA,0.227
21,AAGCGAAC,-0.088
22,CGCGCTCA,0.217
23,ATACGACC,0.0624
24,CGGGCGAA,-0.0145
25,GGGCGAAC,0.182

row,Sequence,PBM E-score
1,GTCGGTTA,0.00288
2,ACCGTCGT,0.027
3,CATCTTCC,0.099
4,ACATTGGC,0.0163
5,CACCGGAC,0.149
6,CCTGGCTA,0.0159
7,CACAAGGC,-0.112
8,CAGGAGTC,0.373
9,CCCTCAGG,-0.226
10,ATGATGTC,0.131
11,ACTGAAAT,0.0362
12,AGTTACTG,0.153
13,AGAAATGG,-0.00785
14,CACATGTG,0.239
15,CATCAACA,0.155
16,AGACTGGA,0.0391
17,AATGTCCG,0.0003
18,TGAGCTCA,0.232
19,AAGCCCAA,-0.181
20,CACAGAGA,-0.00376
21,CAATCTAG,-0.105
22,CAACCGGA,0.0826
